Data published in PubChem BioAssay AID504832 (National Center for Advancing Translational Sciences (NCATS), 2011).
Hit rate of the full screen: of about 310,000 compounds, about 18,000 (5.8%) were called active. The inconclusive results got no clear call from the source; some entries with a clear call stand among them for comparison. The call rests on the fitted dose curve; in most records, active means well fitted inhibition curve with a large enough effect; inconclusive means small, poorly fitted or top-dose-only effect, or another doubt; inactive means no such curve, though single readings can be large or run the other way. No potency is given beside an inconclusive call; the fits are too rough.

Test: Primary qHTS for delayed death inhibitors of the malarial parasite plastid, 48 hour incubation
Conditions: P. falciparum luciferase growth in erythrocytes; series mostly up to 28.7 µM; activity change, negative = inhibition: at the top concentration
How it was run: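 Here the parasites carry a stable luciferase gene and grow inside erythrocytes in Albumax-based RPMI medium with compound for one erythrocytic cycle. Activity is scored as loss of luminescent signal.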
On the % scale 0 is the no-effect control and ±100 the full control effect; potency means the concentration at half of the fitted maximal effect; tags describe the fitted curve by direction and shape.

| Structure (SMILES) | Potency | activity change, negative = inhibition |
| --- | --- | --- |
| CC12CC3(C)CC(C)(C1)CC(C(=O)NC(=S)N1CCOCC1)(C2)C3 | inconclusive [inhibitor, partial curve, poor fit] | – |
| CS(=O)(=O)c1ccc(Cl)c(C(=O)Nc2ccc3nc(N4CCOCC4)sc3c2)c1 | inconclusive [inhibitor, single point] | – |
| COc1ccc(C(=O)C2CCCN(Cc3c[nH]c4ccccc34)C2)c(OC)c1 (stereo not given) | inconclusive [inhibitor, single point] | – |
| COc1ccc(Cn2c(=O)[nH]c3cc(C(=O)NC4CCN(Cc5ccccc5)CC4)ccc32)cc1 | inconclusive [inhibitor, partial curve] | – |
| COC(=O)c1cc(NC(=O)C2COc3ccccc3O2)ccc1Cl (stereo not given) | inconclusive [inhibitor, single point] | – |
| OCCNC(=S)Nc1cc(Cl)cc(Cl)c1 | inconclusive [inhibitor, full curve] | – |
| C=C(C)[C@@H]1CC=C(CN2CCN(Cc3ccccc3)CC2)CC1 | inconclusive [inhibitor, single point] | – |
| CCN(CC)C(=O)CS(=O)CC(=O)Nc1cc(OCCOC)c(Cl)cc1Cl (stereo not given) | inconclusive [inhibitor, partial curve, poor fit] | – |
| COc1ccc(N2CCN(C(=O)CSc3nc4[nH]ncc4c(=O)n3-c3ccc(Br)cc3)CC2)cc1 | inconclusive [inhibitor, partial curve, poor fit] | – |
| COc1cc(CNn2c(C)n[nH]c2=S)cc(Cl)c1OCc1ccccc1 | – | inactive: -11.3% |
| O=c1cccc2n1CC1CC2CN(S(=O)(=O)c2cc(Cl)ccc2Cl)C1 (stereo not given) | inconclusive [inhibitor, full curve, poor fit] | – |
| Cc1ccc(NC(=O)c2c3c(nc4ccccc24)CCC3)cc1 | inconclusive [inhibitor, partial curve] | – |
| CC1OC(Oc2ccc3ccc(=O)oc3c2-c2c(O)ccc3cc(Oc4ccc5ccc(=O)oc5c4)c(=O)oc23)C(O)C(O)C1O (stereo not given) | – | inactive: -10.3% |
| CSc1cccc(CN2CCN(CCc3ccccc3)C(CCO)C2)c1 (stereo not given) | inconclusive [inhibitor, single point] | – |
| O=C(NCc1ccccc1)c1c[nH]c2ccc(F)cc2c1=O | inconclusive [inhibitor, single point] | – |
| Cc1ccc(C2=NN(C(=O)CCC(=O)O)C(c3cccs3)C2)cc1 (stereo not given) | – | inactive: -15.9% |
| COC(=O)c1cc(COC(=O)c2ccc(OC)c(S(=O)(=O)N3CCCC3)c2)oc1C | inconclusive [inhibitor, single point] | – |
| Cc1ccc(-n2nc3c(c2NC(=O)c2ccc(S(=O)(=O)N4CCOCC4)cc2)CSC3)c(C)c1 | active: 5.86 µM | – |
| CCOc1ccc(C(=O)Nc2cccc(-n3cnnn3)c2)cc1OCC | inconclusive [inhibitor, partial curve] | – |
| COc1ccc(NC(=O)CN(C)C(=O)CN2C(=O)NC3(CCCC3)C2=O)cc1 | inconclusive [inhibitor, single point] | – |
| Cc1ccc(C(=O)C(OC(=O)c2c(C)cc(=O)oc2C)c2ccccc2)cc1 (stereo not given) | inconclusive [inhibitor, single point] | – |
| CC(C)Cn1c(SCC(=O)N2CCCCC2)nc2ccccc2c1=O | inconclusive [inhibitor, single point] | – |
| CC1=C(C(=O)OC(C)C)C(c2ccccc2)NC(=O)N1C (stereo not given) | – | inactive: -4.05% |
| O=C(Nc1nc2ccsc2c(=O)s1)C1CCC1 | – | inactive: 16.9% |

| Structure (SMILES) | Potency | activity change, negative = inhibition |
| --- | --- | --- |
| Cc1ccc(C)c(N2CCN(C(=O)Nc3ccc4c(c3)N(C)C(=O)CS4)CC2)c1 | inconclusive [inhibitor, single point] | – |
| CCN(Cc1ccncc1)C(=O)c1ccco1 | inconclusive [inhibitor, single point] | – |
| CCC1(C(=O)c2ccccc2)C2c3cc(Br)ccc3OC(=O)C21C(=O)N1CCOCC1 (stereo not given) | inconclusive [inhibitor, full curve, poor fit] | – |
| Cc1ccc(C)c(S(=O)(=O)N2CCCCC2CCNC(=O)C(=O)NCc2cccnc2)c1 (stereo not given) | inconclusive [inhibitor, single point] | – |
| Cc1cccc(Nc2ccc(C(=O)N3CCOCC3)cn2)c1 | – | inactive: -4.14% |
| O=C(COC(=O)Cc1ccccc1[N+](=O)[O-])Nc1nnc(-c2ccccc2)o1 | inconclusive [inhibitor, partial curve, poor fit] | – |
| Cc1ccc(S(=O)(=O)NC23CC4CC(CC(C4)C2)C3)cc1 | active: 14.7 µM | – |
| COc1nc(NCC(C)C)nc(Oc2ccc(OCc3ccccc3)nn2)n1 | active: 0.37 µM | – |
| COc1ccc(N(C(=O)c2snc(C(N)=O)c2N)C(C(=O)NCc2ccc(F)cc2)c2ccc(C)o2)c(OC)c1 (stereo not given) | inconclusive [inhibitor, partial curve] | – |
| CCOC(CNC(=O)c1ccc2c(c1)ncn2-c1ccccc1OC)OCC | inconclusive [inhibitor, partial curve] | – |
| O=C(NCc1cccnc1)c1cc(Sc2ccc(F)cc2F)nc2ccccc12 | inconclusive [inhibitor, single point] | – |
| CC(C)N(Cc1ccccc1)C(=O)c1ccc2c(c1)OCO2 | – | inactive: -1.54% |
| CCc1ccc(/C=C/C(=O)C2C(=O)c3ccccc3C2=O)cc1 | active: 0.928 µM | – |
| CCC(c1nc2ccccc2c(=O)n1CCCn1ccnc1)N1C(=O)c2ccccc2C1=O (stereo not given) | inconclusive [inhibitor, single point] | – |
| C/C(=N\Nc1ccc(S(=O)(=O)N2CCCCC2)cn1)c1ccc(O)cc1 | inconclusive [inhibitor, single point] | – |
| COc1ccc(-c2csc3ncn(-c4ccc(C)cc4)c(=O)c23)cc1OC | inconclusive [inhibitor, single point] | – |
| O=[N+]([O-])c1cccc(S(=O)(=O)NCCc2cccs2)c1 | – | inactive: 17.4% |
| CC(c1ccon1)N(C)Cc1cn(C)nc1-c1cccc(Cl)c1 (stereo not given) | – | inactive: -4.57% |
| COc1ccc(-c2cnnn2-c2ccc([N+](=O)[O-])cc2)cc1 | inconclusive [inhibitor, partial curve] | – |
| CN1CCN(C(=O)c2ccc3c(c2)N(Cc2cccc(Cl)c2)C(=O)c2ccccc2S3(=O)=O)CC1 | inconclusive [inhibitor, partial curve, poor fit] | – |
| C=CCNC(=O)C1CC2Cn3c(nc4cc5ccccc5cc43)C2N1C (stereo not given) | – | inactive: -6.02% |
| Cc1ccc(C(=O)Nc2cc([N+](=O)[O-])ccc2F)s1 | – | inactive: 19.6% |
| O=C(C1=C[C@H](C2CCCCC2)C[C@H](OCc2ccc(CO)cc2)O1)N1CCN(Cc2ccccc2)CC1 | active: 5.22 µM | – |
| CCCCn1c(N)c(N(CC(C)C)C(=O)c2cccc(-n3cnnn3)c2)c(=O)[nH]c1=O | – | inactive: -10.5% |

| Structure (SMILES) | Potency | activity change, negative = inhibition |
| --- | --- | --- |
| O=C(Nc1ccccc1Cl)c1ccccc1Oc1ccc(C(F)(F)F)cc1[N+](=O)[O-] | inconclusive [inhibitor, partial curve, poor fit] | – |
| Cc1c(Br)c([N+](=O)[O-])nn1CC(=O)Nc1ccc(Cc2ccncc2)cc1 | – | inactive: -11.2% |
| CCOC(=O)C1CCN(S(=O)(=O)c2cc(Br)cc3c2N(C(=O)C2CC2)CC3)CC1 | active: 8.28 µM | – |
| CC(=O)c1c(C)[nH]c(C(=O)OCCCCN2C(=O)c3ccccc3C2=O)c1C | inconclusive [inhibitor, single point] | – |
| COc1ccc(-c2c(C)nn3c(N4CCC5(CC4)OCCO5)cc(C)nc23)cc1OC | active: 11.7 µM | – |
| CCCCOc1ccc(C2(C(=O)O)CCCC2)cc1 | – | inactive: 7.26% |
| COc1ccc(CCNC(=O)CSc2ccsc2[N+](=O)[O-])c(OC)c1 | inconclusive [inhibitor, single point] | – |
| O=C(Cc1ccccc1)N1CCN=C1SCc1cccc([N+](=O)[O-])c1 | inconclusive [inhibitor, partial curve] | – |
| CCCCn1c(SCC(=O)NCc2ccco2)nc2ccc(N3CCOCC3)cc2c1=O | active: 14.7 µM | – |
| COc1cc(C(=O)NCC2(N3CCCCC3)CCCCC2)ccc1OCC(=O)N1CCOCC1 | – | inactive: -5.18% |
| CC1(C)CC(=O)C2=C(C1)Nc1cc(Cl)ccc1S2 | inconclusive [inhibitor, single point] | – |
| CCOc1ccc(NC(=O)CC2C(=O)Nc3ccccc3N2C(=O)c2ccccc2)cc1 (stereo not given) | inconclusive [inhibitor, partial curve, poor fit] | – |
| O=C(N=C1c2ccccc2CN1c1ccc(F)cc1)c1ccc(Cl)nc1 | – | inactive: 41.8% |
| Cc1ccc(S(=O)(=O)NCc2ccccc2)cc1C(=O)NCC(C)(C)N1CCOCC1 | inconclusive [inhibitor, single point] | – |
| CCCn1cc(CN2CCC(N3CCC(C(=O)N4CCOCC4)CC3)CC2)c(C)n1 | – | inactive: 23.7% |
| CCOC(=O)/C(N=Nc1ccc2c(c1)OCO2)=C(\C)O | – | inactive: 400% |
| CCCc1cc(C(=O)N(C)CC(=O)Nc2ccc(OCC)c(OCC)c2)sc1C | inconclusive [inhibitor, partial curve] | – |
| COCCCNC(=S)NNC(=O)c1ccc(C(C)(C)C)cc1 | – | inactive: 3.94% |
| O=C1OC(=O)C2C3CCC(O3)C12 (stereo not given) | – | inactive: -18% |
| O=P(O)(O)OP(=O)(O)O | active: 3.79 µM | – |
| O=C(CCCc1c[nH]c2ccccc12)N1CCN(S(=O)(=O)c2cccs2)CC1 | inconclusive [inhibitor, single point] | – |
| O=[N+]([O-])/C=C/c1cc2ccccc2[nH]1 | inconclusive [inhibitor, full curve, poor fit] | – |
